This note sets out measurements from PMC6212790.

The list shows a part of the results. At the low end of the ranking the order means little.

This test concerns the target T1, GST-Rok-C97-191 (UniProt O34857).
T1 sequence: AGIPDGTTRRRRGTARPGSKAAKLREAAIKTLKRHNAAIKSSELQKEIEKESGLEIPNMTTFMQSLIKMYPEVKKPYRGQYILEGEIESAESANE
Nature of the test: protein binding microarray.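 Further: rank score from −0.5 (least bound) to 0.5 (best bound).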 The following applies: Rok is a gene silencer of Bacillus subtilis; high values mean tight binding; most listed sequences are background and not binding sites; double strand, one strand shown.
Consider GATTCTAC, for which the binding signal turned out to be 0.406 E-score.

With GACTGTCA, the binding signal is -0.067 E-score.

GCGGGCCC: the binding signal is -0.284 E-score.

TCTACCCA registered a binding signal of 0.234 E-score.

ACTATCTC came in with a binding signal of 0.263 E-score.

ATTGGACC registered a binding signal of -0.272 E-score.

With GGAGTGAC, the binding signal was -0.282 E-score.

For AACATACG, the binding signal was determined as 0.0602 E-score.

For CAACCGTA, the binding signal amounted to 0.0759 E-score.

Take CCCTTGAG: the binding signal was -0.0319 E-score.

The sequence ATCCGCGG gave a binding signal of -0.117 E-score.

Consider AGCTATTA, for which the binding signal was determined as 0.315 E-score.

In turn, GCATTGCA had a binding signal of -0.0382 E-score.

Sequence AAAATAAA gave a binding signal of 0.154 E-score.

CCTTAAGC yielded a binding signal of -0.126 E-score.

Sequence GCCCTGAA came in with a binding signal of -0.131 E-score.

For GGACTAAC, the binding signal was 0.0504 E-score.

In turn, GCCAATCC yielded a binding signal of -0.27 E-score.

In turn, GATCAAGA yielded a binding signal of 0.0247 E-score.

The sequence CGTTAAGC yielded a binding signal of -0.157 E-score.

ATCATGAT gave a binding signal of -0.00709 E-score.

GCCGGTAC yielded a binding signal of -0.168 E-score.

Regarding ATTCTGGG, the binding signal was -0.0988 E-score.

CTCTTCAG displayed a binding signal of -0.0311 E-score.

The sequence ACCTTGCT had a binding signal of -0.156 E-score.

Take CTTCGTTA: the binding signal is -0.0688 E-score.

In turn, AATATACA registered a binding signal of 0.394 E-score.

Consider GAGAACCA, for which the binding signal stood at 0.0926 E-score.

For the sequence AGTCCACG, the binding signal was -0.283 E-score.

AGATCTAA yielded a binding signal of 0.112 E-score.

On to AGTCCGGG, for which the binding signal is -0.196 E-score.

CAACTGTA: the binding signal was 0.111 E-score.

Sequence ATGGTCCG registered a binding signal of -0.132 E-score.

As for ATGTTCGG, the binding signal was -0.0897 E-score.

On to AGCTTCGG, for which the binding signal was -0.168 E-score.

Sequence TCACGGGA displayed a binding signal of -0.138 E-score.

As to ACCGACCA, the binding signal was -0.0187 E-score.

In the case of ATTTTAGC, the binding signal was 0.242 E-score.

CTCCAAGC came in with a binding signal of -0.235 E-score.

The sequence AAGTATCC registered a binding signal of 0.0955 E-score.

Sequence AGCGTCAT displayed a binding signal of -0.157 E-score.

With CAAGCTAC, the binding signal was 0.0991 E-score.

In turn, GTGAGAGA returned a binding signal of -0.15 E-score.

In the case of AACATTTG, the binding signal was determined as 0.0606 E-score.

The sequence CGTGACTC had a binding signal of -0.263 E-score.

GACCCAAC had a binding signal of -0.142 E-score.

Take GCTGGAGA: the binding signal is -0.0975 E-score.

GAGTCATA registered a binding signal of 0.0358 E-score.

As for AAACCAGA, the binding signal came out at 0.00552 E-score.

ATGACGTC registered a binding signal of 0.114 E-score.

GATTCCGC gave a binding signal of -0.235 E-score.

Sequence AGTCAAAA gave a binding signal of 0.0923 E-score.

ACCCACCT came in with a binding signal of -0.198 E-score.

For the sequence AAGCCTAT, the binding signal was 0.213 E-score.

Sequence CATCGGCC came in with a binding signal of -0.226 E-score.

On to ACACATGG, for which the binding signal was 0.126 E-score.

Consider ACTCCGGG, for which the binding signal was -0.119 E-score.

Sequence GGCCCCAA registered a binding signal of -0.279 E-score.

Sequence AGAAGTAT came in with a binding signal of 0.292 E-score.

Regarding AACCAAAA, the binding signal was 0.0375 E-score.

For the sequence ACAAAGCG, the binding signal came out at 0.0314 E-score.

Turning to TCGGGCAA, the binding signal is -0.0458 E-score.

As for ATACCGCG, the binding signal was found to be 0.0536 E-score.

Take ACTTTGTC: the binding signal is -0.075 E-score.

With CTATACGA, the binding signal worked out at 0.00609 E-score.

On to CACCAGTC, for which the binding signal was -0.25 E-score.

Turning to CCCGCCCA, the binding signal was -0.0203 E-score.

For CCGACCAG, the binding signal was -0.107 E-score.

In turn, CATCATTC returned a binding signal of 0.0109 E-score.

As for AGCTGTAC, the binding signal is 0.0313 E-score.

GACTGTAA: the binding signal was -0.00114 E-score.

GACAAACC gave a binding signal of 0.0322 E-score.

Sequence AGCCAATG came in with a binding signal of -0.162 E-score.

As to TGATACCA, the binding signal is 0.171 E-score.

CGATGGTC gave a binding signal of -0.198 E-score.

CAGAGGGC yielded a binding signal of -0.25 E-score.

As to GTGCGCAC, the binding signal worked out at 0.0744 E-score.

AACGACGT came in with a binding signal of 0.0826 E-score.

With GCTTTGAA, the binding signal was -0.0522 E-score.

As for ATCGCCTC, the binding signal was -0.136 E-score.

Sequence GCATGAAC showed a binding signal of -0.3 E-score.

Consider AATTCTCT, for which the binding signal was determined as 0.00617 E-score.

In turn, TATGGGGA registered a binding signal of -0.072 E-score.

Turning to CCGCGGGA, the binding signal is -0.156 E-score.

AAGACCGC returned a binding signal of -0.159 E-score.

In turn, ACGGTCCG returned a binding signal of -0.237 E-score.

ATGCTTCC yielded a binding signal of -0.269 E-score.

The sequence AAAACTGA showed a binding signal of -0.0171 E-score.

For the sequence CTAAGGCC, the binding signal is -0.157 E-score.

For the sequence CGTGTCTA, the binding signal worked out at 0.148 E-score.

In the case of CGTCAGCA, the binding signal was -0.273 E-score.

Sequence GACCACAC returned a binding signal of -0.0705 E-score.

In the case of ATAGATCC, the binding signal was 0.207 E-score.

Consider AGAGTAAA, for which the binding signal came to 0.113 E-score.

CGTTATAG: the binding signal worked out at 0.109 E-score.

On to CTGTAAAC, for which the binding signal worked out at 0.0537 E-score.

Sequence CCCGGATC showed a binding signal of -0.177 E-score.

GAGCAGCC came in with a binding signal of -0.216 E-score.

Take GCTAAAAA: the binding signal came to 0.121 E-score.

In turn, ATATAACC yielded a binding signal of 0.233 E-score.

The sequence AGCGATCC had a binding signal of -0.165 E-score.

CAAAGCTC had a binding signal of -0.152 E-score.

Take CAACCAGG: the binding signal was -0.166 E-score.

Sequence CAAATGTA registered a binding signal of 0.269 E-score.

GGTACCAA: the binding signal stood at 0.245 E-score.

As for GTGGTTGA, the binding signal stood at 0.111 E-score.

The sequence CATTGCCC gave a binding signal of -0.163 E-score.

As to GGGAGTAC, the binding signal is -0.213 E-score.

The sequence CTGCGAGA gave a binding signal of 0.0174 E-score.

Turning to ACCGATAT, the binding signal was 0.312 E-score.

Take AGTGGCAG: the binding signal is -0.208 E-score.

Regarding GAGGGTAA, the binding signal was -0.0477 E-score.

CCAGAAGA registered a binding signal of -0.149 E-score.

Regarding CTCTCCCA, the binding signal was -0.153 E-score.

In the case of CAGGGGGG, the binding signal was -0.376 E-score.

On to CATGTTGC, for which the binding signal is -0.00843 E-score.

In turn, CAATATTC gave a binding signal of 0.186 E-score.

CCACTAAA returned a binding signal of 0.0373 E-score.

CAGACAGC displayed a binding signal of -0.123 E-score.

With CTTCACGC, the binding signal is -0.0928 E-score.

The sequence GTTTCCGA displayed a binding signal of 0.0766 E-score.

On to CCTTTCCA, for which the binding signal is -0.208 E-score.

AAGACTCA gave a binding signal of -0.19 E-score.

Regarding AGGTGATA, the binding signal was found to be 0.195 E-score.

With CCAGTTAC, the binding signal turned out to be 0.263 E-score.

Consider AACCAGGA, for which the binding signal was -0.147 E-score.

The sequence CTGGGGCA yielded a binding signal of -0.313 E-score.

ATAGGAAG showed a binding signal of 0.0169 E-score.

In turn, CAATTACC yielded a binding signal of 0.0477 E-score.

For the sequence TTGGGAAA, the binding signal is 0.0122 E-score.

TATAAGGA had a binding signal of 0.102 E-score.

For the sequence CGTGGTAG, the binding signal turned out to be 0.206 E-score.

Sequence GTGTATGA registered a binding signal of 0.183 E-score.

With GCGTGGCA, the binding signal was -0.303 E-score.

Sequence ATGCCCGG came in with a binding signal of -0.266 E-score.

As to ATGTCAAA, the binding signal is 0.0176 E-score.

Consider AGGACCGC, for which the binding signal is -0.272 E-score.

As to CGTTCTAG, the binding signal was found to be 0.22 E-score.

As to ATCCCAAT, the binding signal was -0.0813 E-score.

ACACTGCT gave a binding signal of 0.127 E-score.

For CGTACATC, the binding signal was 0.252 E-score.

In turn, ACTAGGCC came in with a binding signal of -0.168 E-score.

ATCGAGGC had a binding signal of -0.159 E-score.

As for CGGCTCTC, the binding signal was -0.276 E-score.

As for ACTCTTCG, the binding signal turned out to be 0.00879 E-score.

Consider GAGGAGGC, for which the binding signal was -0.32 E-score.

Consider GCCGACAA, for which the binding signal was -0.151 E-score.

CGATCATA had a binding signal of 0.249 E-score.

For the sequence ACCAGAAC, the binding signal is -0.112 E-score.

AAAAGACT registered a binding signal of 0.0531 E-score.

For the sequence GGGCAACC, the binding signal was -0.335 E-score.

For CTGACAAG, the binding signal is -0.143 E-score.

Sequence GCTGGGCC came in with a binding signal of -0.263 E-score.

The sequence GCGGGGCC gave a binding signal of -0.387 E-score.

ACACACAC: the binding signal amounted to 0.169 E-score.

On to TACCGCAA, for which the binding signal is 0.0594 E-score.

In the case of GCTGCAAA, the binding signal came out at 0.0301 E-score.

Sequence CAGCCACG came in with a binding signal of -0.162 E-score.

In turn, ACGAGAAA displayed a binding signal of -0.086 E-score.

Turning to AAATGATG, the binding signal was -0.0075 E-score.

Sequence AGCATTGA showed a binding signal of 0.0146 E-score.

With AGTTGTGA, the binding signal came out at 0.0563 E-score.

ACAGCGCC had a binding signal of -0.311 E-score.

In turn, CAGGCCCC yielded a binding signal of -0.282 E-score.

Turning to AAATACAG, the binding signal was found to be 0.123 E-score.

Consider ACTGCAGA, for which the binding signal stood at 0.00119 E-score.

Take ACCAAATC: the binding signal turned out to be 0.11 E-score.

In the case of AATCCTCT, the binding signal amounted to 0.00921 E-score.

CTGTGTTC displayed a binding signal of -0.0847 E-score.

Consider ATAATTAC, for which the binding signal is 0.332 E-score.

Take CGCCTACG: the binding signal was -0.0439 E-score.

As for CAACTCCC, the binding signal was -0.0312 E-score.
